± gives the standard deviation of the averaged measurements. This is one part of the list.
The sequences below were run on PfAP2-LT AP2 domain (GST-tagged) (assay: gcPBM binding intensity (ln(normalized median fluorescence intensity)); higher = stronger DNA binding).
Outline: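 GST-fused DNA-binding domains of P. falciparum, expressed in E. coli, were applied at about 25 μg on average for 1 h to an Agilent 4 × 180k array of primer-extended double-stranded 36-bp intergenic genomic probes and negative controls. Binding intensity is the highest Masliner-normalised natural-log median intensity across replicate spots of either probe orientation, measured with Alexa488 anti-GST antibody and a 488 nm scan.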
For “GTAAAAAATATGACAAGTACAAGAAAAGAAAAAAGT [XGTACX_site7906]”, the “gcPBM binding intensity (ln)” value was 9.29 ± 0.5.
“ATAGAACTATATTGCACACATAATATATATATATAT [CACACA_site3189]” was tested, and the “gcPBM binding intensity (ln)” value was 9.36 ± 0.13.
For “TAATATAAAGAAAAGGAACACACAAATATATATATA [CACACA_site8049]”, the “gcPBM binding intensity (ln)” value was 9.04 ± 0.38.
With TTTTCTTGGTTCAGTGTGCACTTATATATATATATA the “gcPBM binding intensity (ln)” value was 9.21 ± 0.39.
“TTATAATATATATACAGTACATATATAAAATAATAT [XGTACX_site5917]” was tested, and the “gcPBM binding intensity (ln)” value was 8.71 ± 0.41.
“TTATTTCTCTTTTCAGTGCATTTTATAACAAAAAAA [GTGCAC_site9930]” was tested, and the “gcPBM binding intensity (ln)” value was 8.17 ± 0.24.
In the case of “ATATATATAATATGCGGTACACATTAATTAAATCAT [XGTACX_site5702]”, the “gcPBM binding intensity (ln)” value is reported as 8.91 ± 0.42.
For “TTATTTTATAATAAAAGTACACAAAAAAAAAAAAAA [XGTACX_site7668]”, the “gcPBM binding intensity (ln)” value was 8.38 ± 0.42.
For “TAATTATGCAGACACACACACACACCCAACTAAAAA [CACACA_site2569]”, the “gcPBM binding intensity (ln)” value was 9.96 ± 0.23.
In the case of “ATATATTATATAAAGTGTACAAAAAAAATATATAAA [XGTACX_site8065]”, the “gcPBM binding intensity (ln)” value is reported as 8.9 ± 0.45.
In the case of “CTATTTCATGGACACACACACACAAACAAACATATA [CACACA_site4696]”, the “gcPBM binding intensity (ln)” value is reported as 9.9 ± 0.26.
For “TTATTGCATTGTTTTTATAAAAAAAAAAAAAAAATT [XGTACX_negctrl_site104]”, the “gcPBM binding intensity (ln)” value was 8.36 ± 0.57.
For “ATATATATTTTATTCACACATAAGATTATAAAACAT [CACACA_site5369]”, the “gcPBM binding intensity (ln)” value was 8.59 ± 0.39.
In the case of “TATGATATAATTATGTGTACACAATTTTTTTTTTTT [XGTACX_site1084]”, the “gcPBM binding intensity (ln)” value is reported as 8.76 ± 0.5.
For “TGTGTTCAGTATTGCACACACACAACAAAATAAAAA [CACACA_site8017]”, the “gcPBM binding intensity (ln)” value was 9.44 ± 0.35.
“ATTAATAAGAAATATACACACATGGATAAATACATA [CACACA_site1872]” was tested, and the “gcPBM binding intensity (ln)” value was 9.07 ± 0.39.
For “TTTCTTGCTACATGAAGTACACTTTCTATGACTCGT [XGTACX_site5583]”, the “gcPBM binding intensity (ln)” value was 8.81 ± 0.54.
With “AAAAAAAAATTTTTAAAATTTAGAAAATTTAAAAAA [GTGCAC_negctrl_site649]” the “gcPBM binding intensity (ln)” value was 7.99 ± 0.61.
With “TAATAATGCAACCTCTGTACACAACATTATATCCAT [XGTACX_site7596]” the “gcPBM binding intensity (ln)” value was 8.95 ± 0.46.
In the case of “TATATATAAGCGTGTACACATTCTGAGTGTTGTATA [CACACA_site4502]”, the “gcPBM binding intensity (ln)” value is reported as 9.06 ± 0.38.
With “ATATTTAATGTTAATTGTACATATTATATATATATA [XGTACX_site6095]” the “gcPBM binding intensity (ln)” value was 8.77 ± 0.35.
With “ATAATATTATTATAATGTACATATTTCGATATAAAT [XGTACX_site8808]” the “gcPBM binding intensity (ln)” value was 8.7 ± 0.43.
In the case of “GATTATACAAAATATACACACGTGTAGACAAATATT [CACACA_site4785]”, the “gcPBM binding intensity (ln)” value is reported as 9.37 ± 0.43.
“ATATATATTAATAGGTGTACATATAAAGTGTTATGT [XGTACX_site5464]” was tested, and the “gcPBM binding intensity (ln)” value was 8.93 ± 0.35.
For “AAAAAAATATATATTACACACATATATACCTATATA [CACACA_site5688]”, the “gcPBM binding intensity (ln)” value was 8.95 ± 0.33.
“ACAAAAAATAATCAAAATGTATATATATAATATAAT [XGTACX_negctrl_site593]” was tested, and the “gcPBM binding intensity (ln)” value was 8.86 ± 0.47.
In the case of “TATTGAAGTTATAAAGTGCAGATAAATATGAGTTAT [GTGCAC_site9945]”, the “gcPBM binding intensity (ln)” value is reported as 8.85 ± 0.52.
With “AAATGCCATATAATTTTTCTTAAACATAATTGTATA [CACACA_negctrl_site1665]” the “gcPBM binding intensity (ln)” value was 8.38 ± 0.43.
“ATTGTCTTCTCATATACACACTTTTATGACTATCTT [CACACA_site5696]” was tested, and the “gcPBM binding intensity (ln)” value was 9.21 ± 0.48.
For “TGTGTAATTATATATAAGGAGAAAGAATTCATTTTT [CACACA_negctrl_site670]”, the “gcPBM binding intensity (ln)” value was 8.48 ± 0.49.
In the case of “ATTATCCATGCATTTACACACACACCCAAAAAAATT [CACACA_site4101]”, the “gcPBM binding intensity (ln)” value is reported as 9.61 ± 0.15.
For “AAAGGGGCATATATATGTACATATTATATATTTTGA [XGTACX_site2436]”, the “gcPBM binding intensity (ln)” value was 8.86 ± 0.37.
In the case of “TATGTGAATATAATCACACACAATACGGAAACCCAC [CACACA_site2725]”, the “gcPBM binding intensity (ln)” value is reported as 9.51 ± 0.28.
For “AAAGTCTCATTAAAATGTACAAAATTTTCAGCTGTA [XGTACX_site6296]”, the “gcPBM binding intensity (ln)” value was 8.48 ± 0.45.
With “TAATTTTTAATTGTAGCATGCAGTATTTTTAAATAT [TGCATGCA_site140]” the “gcPBM binding intensity (ln)” value was 8.46 ± 0.37.
With “AATACATTGTCAAATTGTACAAATTATAGAACTATT [XGTACX_site2222]” the “gcPBM binding intensity (ln)” value was 8.86 ± 0.4.
“TGTTTTTATATATATGCACACAATGTACAAGTATAC [CACACA_site3529]” was tested, and the “gcPBM binding intensity (ln)” value was 9.23 ± 0.35.
“CCATAAAAAGGATACACACACACACCCACATATATA [CACACA_site903]” was tested, and the “gcPBM binding intensity (ln)” value was 10.1 ± 0.32.
In the case of “ATAAATATGGAGCACACACACATAAACATACCTATA [CACACA_site6336]”, the “gcPBM binding intensity (ln)” value is reported as 9.82 ± 0.3.
“GATCTACATGAAAGGACACACAAATATATATATATA [CACACA_site84]” was tested, and the “gcPBM binding intensity (ln)” value was 9.62 ± 0.35.
“TTAAAAATGATTGAATGTACAGATTAATATAATTTT [XGTACX_site7394]” was tested, and the “gcPBM binding intensity (ln)” value was 8.4 ± 0.57.
“TAATTTTTGAAACACACACACATATATATATATATA [CACACA_site94]” was tested, and the “gcPBM binding intensity (ln)” value was 9.885 ± 0.0071.
“ATAATAAGGTTAAGCACACATATTACAGATATAACT [CACACA_site5791]” was tested, and the “gcPBM binding intensity (ln)” value was 9.03 ± 0.42.
“AAATATTATGTGGCAAGTACATAAAGAAAATGCTTA [XGTACX_site3356]” was tested, and the “gcPBM binding intensity (ln)” value was 8.89 ± 0.56.
With “AATAATAATAATAATAGTACATATTATGAATATGAT [XGTACX_site5730]” the “gcPBM binding intensity (ln)” value was 8.81 ± 0.46.
